Laboratory results: patent publication US20040022772

Legend:
[1] = molecular target: T1, pS354 S17K (phosphoserine Bcr peptide 350-366)
T1 chain: SSRVSPSPTTYRMFRDK

[2] = molecular target: T2, unphosphorylated S17K (Bcr peptide 350-366)
T2 chain: SSRVSPSPTTYRMFRDK

p160 BCR, P11274 = molecular target: T3, p160 BCR, P11274
T3 chain: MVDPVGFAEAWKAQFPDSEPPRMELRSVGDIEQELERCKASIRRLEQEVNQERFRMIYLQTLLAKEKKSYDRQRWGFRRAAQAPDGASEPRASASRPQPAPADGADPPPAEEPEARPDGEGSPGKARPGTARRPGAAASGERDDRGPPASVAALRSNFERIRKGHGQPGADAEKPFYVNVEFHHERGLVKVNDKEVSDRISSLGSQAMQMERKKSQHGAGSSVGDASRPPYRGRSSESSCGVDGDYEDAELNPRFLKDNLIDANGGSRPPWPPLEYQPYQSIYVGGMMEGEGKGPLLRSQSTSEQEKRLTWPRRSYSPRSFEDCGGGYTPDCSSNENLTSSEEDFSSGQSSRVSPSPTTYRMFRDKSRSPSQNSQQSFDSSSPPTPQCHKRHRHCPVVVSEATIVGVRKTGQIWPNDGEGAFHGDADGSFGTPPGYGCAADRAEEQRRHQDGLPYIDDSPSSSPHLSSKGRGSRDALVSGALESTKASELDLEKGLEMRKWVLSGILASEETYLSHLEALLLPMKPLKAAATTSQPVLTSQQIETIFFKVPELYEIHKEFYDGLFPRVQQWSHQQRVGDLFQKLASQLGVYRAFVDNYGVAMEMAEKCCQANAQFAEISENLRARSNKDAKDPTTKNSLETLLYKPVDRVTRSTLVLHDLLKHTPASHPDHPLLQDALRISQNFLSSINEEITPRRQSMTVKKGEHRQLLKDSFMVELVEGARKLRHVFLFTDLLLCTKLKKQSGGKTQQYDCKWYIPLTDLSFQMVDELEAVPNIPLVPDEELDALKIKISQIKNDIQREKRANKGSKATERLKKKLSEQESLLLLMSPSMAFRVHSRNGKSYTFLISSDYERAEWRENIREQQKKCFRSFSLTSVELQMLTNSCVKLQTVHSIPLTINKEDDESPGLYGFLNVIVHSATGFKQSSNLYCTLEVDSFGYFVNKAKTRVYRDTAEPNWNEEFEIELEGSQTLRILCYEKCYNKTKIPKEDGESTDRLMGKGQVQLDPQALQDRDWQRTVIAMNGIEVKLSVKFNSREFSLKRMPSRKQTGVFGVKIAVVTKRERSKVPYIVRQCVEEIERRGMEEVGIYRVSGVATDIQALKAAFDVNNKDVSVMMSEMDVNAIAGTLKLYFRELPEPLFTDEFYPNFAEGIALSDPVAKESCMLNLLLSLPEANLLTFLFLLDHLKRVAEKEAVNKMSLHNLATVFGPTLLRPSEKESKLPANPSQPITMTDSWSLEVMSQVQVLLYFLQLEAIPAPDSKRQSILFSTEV

B1: p185 BCR-ABL (protein)
chain: MVDPVGFAEAWKAQFPDSEPPRMELRSVGDIEQELERCKASIRRLEQEVNQERFRMIYLQTLLAKEKKSYDRQRWGFRRAAQAPDGASEPRASASRPQPAPADGADPPPAEEPEARPDGEGSPGKARPGTARRPGAAASGERDDRGPPASVAALRSNFERIRKGHGQPGADAEKPFYVNVEFHHERGLVKVNDKEVSDRISSLGSQAMQMERKKSQHGAGSSVGDASRPPYRGRSSESSCGVDGDYEDAELNPRFLKDNLIDANGGSRPPWPPLEYQPYQSIYVGGMMEGEGKGPLLRSQSTSEQEKRLTWPRRSYSPRSFEDCGGGYTPDCSSNENLTSSEEDFSSGQSSRVSPSPTTYRMFRDKSRSPSQNSQQSFDSSSPPTPQCHKRHRHCPVVVSEATIVGVRKTGQIWPNDGEGAFHGDAEALQRPVASDFEPQGLSEAARWNSKENLLAGPSE[in this place about 60 residues]LEKHSWYHGPVSRNAAEYLLSSGINGSFLVRESESSPGQRSISLRYEGRVYHYRINTASDGKLYVSSESRFNTLAELVHHHSTVADGLITTLHYPAPKRNKPTVYGVSPNYDKWEMERTDITMKHKLGGGQYGEVYEGVWKKYSLTVAVKTLKEDTMEVEEFLKEAAVMKEIKHPNLVQLLGVCTREPPFYIITEFMTYGNLLDYLRECNRQEVNAVVLLYMATQISSAMEYLEKKNFIHRDLAARNCLVGENHLVKVADFGLSRLMTGDTYTAHAGAKFPIKWTAPESLAYNKFSIKSDVWAFGVLLWEIATYGMSPYPGIDLSQVYELLEKDYRMERPEGCPEKVYELMRACWQWNPSDRPSFAEIHQAFETMFQESSISDEVEKELGKQGVRGAVSTLLQAPELPTKTRTSRRAAEHRDTTDVPEMPHSKGQGESDPLDHEPAVSPLLPRKERGPPEGGLNEDERLLPKDKKTNLFSALIKKKKKTAPTPPKRSSSFREMDGQPERRGAGEEEGRDISNGALAFTPLDTADPAKSPKPSNGAGVPNGALRESGGSGFRSPHLWKKSSTLTSSRLATGEEEGGGSSSKRFLRSCSASCVPHGAKDTEWRSVTLPRDLQSTGRQFDSSTFGGHKSEKPALPRKRAGENRSDQVTRGTVTPPPRLVKKNEEAADEVFKDIMESSPGSSPPNLTPKPLRRQVTVAPASGLPHKEEAGKGSALGTPAAAEPVTPTSKAGSGAPGGTSKGPAEESRVRRHKHSSESPGRDKGKLSRLKPAPPPPPAASAGKAGGKPSQSPSQEAAGEAVLGAKTKATSLVDAVNSDAAKPSQPGEGLKKPVLPATPKPQSAKPSGTPISPAPVPSTLPSASSALAGDQPSSTAFIPLISTRVSLRKTRQPPERIASGAITKGVVLDSTEALCLAISRNSEQMASHSAVLEAGKNLYTFCVSYVDSIQQMRNKFAFREAINKLENNLRELQICPATAGSGPAATQDFSKLLSSVKEISDIVQR
With B1 the “Bcr-Abl kinase activity (autophosphorylation in immune complex auto kinase assay, 50 ug peptide)” value [1] was “strongly inhibited the Bcr-Abl kinase activity”, the “Bcr-Abl kinase activity (autophosphorylation in immune complex auto kinase assay, 50 ug peptide)” value [2] was “unphosphorylated SI 7K had little affect” and the “serine/threonine autophosphorylation of Bcr, high level of Bcr-Abl complexes” value (p160 BCR, P11274) was “the level of Bcr autophosphorylation was reduced about 30-fold”. The “serine/threonine autophosphorylation of Bcr, low level of Bcr-Abl (5%)” value (p160 BCR, P11274) was “reduced more than 2.5-fold by a low level of Bcr-Abl (5%)”.
